Measured values reported in the supplement of paper PMC4604168 (melanoma cell lines).
The list shows a part of the results. Repeats are few or missing, and single values can be far off.
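Note: cells treated in 1,536-well plates, then fixed and DAPI-stained, with nuclei counted from automated high-throughput microscope images.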

What follows are molecules tested on UACC62 (assay: cell count relative to DMSO control; melanoma cells; higher = more viable cells). Conditions: library dose: standard library concentration; 72 h.
Cn1cnc2c(F)c(Nc3ccc(Br)cc3Cl)c(C(=O)NOCCO)cc21 [selumetinib] + Cc1cc([N+](=O)[O-])ccc1NS(=O)(=O)c1cc(Cl)ccc1Cl [FH535] (first compound 0.075 µM, partner dose 5 µM) showed a cell count of 74%.
With Cn1cnc2c(F)c(Nc3ccc(Br)cc3Cl)c(C(=O)NOCCO)cc21 [selumetinib] + COc1cc2ncnc(Nc3ccc(Oc4ccccc4)cc3)c2cc1OC [SrcI1] (first compound 0.075 µM, partner dose 10 µM) the cell count was 43.8%.
Molecule C[C@]1(O)C[C@@H](c2nc(-c3ccc4ccc(-c5ccccc5)nc4c3)c3c(N)nccn32)C1 + CCc1ccc(CCOc2ccc(CC3SC(=O)NC3=O)cc2)nc1 [pioglitazone] (first compound 2 µM, partner dose 10 µM) has a cell count of 83.8%.
CCN(CC)CCNC(=O)c1c(C)[nH]c(/C=C2\C(=O)Nc3ccc(F)cc32)c1C [sunitinib] + O=S(=O)(c1ccccc1)N(CC(F)(F)F)c1ccc(C(O)(C(F)(F)F)C(F)(F)F)cc1 [T0901317] (first compound 2 µM, partner dose 7 µM) was tested, and the cell count was 44.4%.
Cn1cnc2c(F)c(Nc3ccc(Br)cc3Cl)c(C(=O)NOCCO)cc21 [selumetinib] + Oc1cc(-c2nc(-c3ccccc3)[nH]c2-c2ccncc2)ccc1Cl [L779450] (first compound 0.075 µM, partner dose 1 µM) gave a cell count of 51.1%.
For C[C@]1(O)C[C@@H](c2nc(-c3ccc4ccc(-c5ccccc5)nc4c3)c3c(N)nccn32)C1 + N#Cc1c(O)c2c(-c3ccc(-c4ccccc4O)cc3)csc2[nH]c1=O [A769662] (first compound 2 µM, partner dose 10 µM), the cell count was 85.6%.
Molecule COc1cc([C@@H]2c3cc4c(cc3[C@@H](O[C@@H]3O[C@@H]5CO[C@@H](C)O[C@H]5[C@H](O)[C@H]3O)[C@H]3COC(=O)[C@H]23)OCO4)cc(OC)c1O [etoposide] + N#Cc1c(O)c2c(-c3ccc(-c4ccccc4O)cc3)csc2[nH]c1=O [A769662] (first compound 0.1 µM, partner dose 10 µM) has a cell count of 61.4%.
Molecule CCN(CC)CCNC(=O)c1c(C)[nH]c(/C=C2\C(=O)Nc3ccc(F)cc32)c1C [sunitinib] + COc1ccc(-c2ccc3c(N4CCOCC4)nc(N4C[C@@H](C)O[C@@H](C)C4)nc3n2)cc1CO [KU0063794] (first compound 2 µM, partner dose 0.1 µM) has a cell count of 67%.
CCN(CC)CCNC(=O)c1c(C)[nH]c(/C=C2\C(=O)Nc3ccc(F)cc32)c1C [sunitinib] + N#Cc1c(O)c2c(-c3ccc(-c4ccccc4O)cc3)csc2[nH]c1=O [A769662] (first compound 2 µM, partner dose 10 µM) gave a cell count of 77.4%.
In the case of Cn1cnc2c(F)c(Nc3ccc(Br)cc3Cl)c(C(=O)NOCCO)cc21 [selumetinib] + CCc1ccc(CCOc2ccc(CC3SC(=O)NC3=O)cc2)nc1 [pioglitazone] (first compound 0.075 µM, partner dose 10 µM), the cell count is reported as 77%.
C[C@]1(O)C[C@@H](c2nc(-c3ccc4ccc(-c5ccccc5)nc4c3)c3c(N)nccn32)C1 + COc1ccc(-c2ccc3c(N4CCOCC4)nc(N4C[C@@H](C)O[C@@H](C)C4)nc3n2)cc1CO [KU0063794] (first compound 2 µM, partner dose 0.1 µM) gave a cell count of 79.2%.
Cn1cnc2c(F)c(Nc3ccc(Br)cc3Cl)c(C(=O)NOCCO)cc21 [selumetinib] + O=c1cc(-c2cccc3c2Sc2ccccc2S3)oc(N2CCOCC2)c1 [KU55933] (first compound 0.075 µM, partner dose 5 µM) showed a cell count of 60.2%.
Cn1cnc2c(F)c(Nc3ccc(Br)cc3Cl)c(C(=O)NOCCO)cc21 [selumetinib] + O=C(Nc1ccccc1)c1cc([N+](=O)[O-])ccc1Cl [GW9662] (first compound 0.075 µM, partner dose 10 µM) showed a cell count of 60.1%.
COc1cc([C@@H]2c3cc4c(cc3[C@@H](O[C@@H]3O[C@@H]5CO[C@@H](C)O[C@H]5[C@H](O)[C@H]3O)[C@H]3COC(=O)[C@H]23)OCO4)cc(OC)c1O [etoposide] + COc1cc(N2CCC(N3CCN(C)CC3)CC2)ccc1Nc1ncc(Cl)c(Nc2ccccc2S(=O)(=O)C(C)C)n1 [NVP-TAE684] (first compound 0.1 µM, partner dose 0.4 µM) showed a cell count of 66.2%.
